Experimental data taken from the supplement of paper PMC12578646, “Prodrug florfenicol amine is activated by intrinsic resistance to target Mycobacterium abscessus” (Nature Microbiology, 2025).
M. abscessus ATCC 19977 and its deletion, point and complemented mutants after 5 days of drug at 37 °C plus 24 h of resazurin. Growth in % of untreated wells at the dose given (lower = more inhibition); checkerboards give % inhibition (higher = more inhibition); IC50 from the fitted curve (lower = more potent). No active / inactive call. IC50 values come from the same 384-well curves. Growth is not capped and can exceed 100%. The direction of the checkerboard scale is read from the raw signals. Capreomycin is a mixture.

Experiments:
Assay in all cases: growth relative to untreated wells; higher = more growth (less inhibition)
[1] = tested on: Mycobacterium abscessus ATCC 19977 Eis2 E120fs
Procedure: (§1)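 384-well two-fold dose series, two replicates; 5 days at 37 °C, then 24 h with resazurin; fluorescence scaled to growth and killed controls.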

[2] = tested on: Mycobacterium abscessus ATCC 19977 Eis2 T258R
Procedure: as §1

[3] = tested on: Mycobacterium abscessus ATCC 19977 Eis2 Y227D
Procedure: as §1

[4] = tested on: Mycobacterium abscessus ATCC 19977 Eis2 Y255*
Procedure: as §1

[5] = tested on: Mycobacterium abscessus ATCC 19977 Eis2 Y284*
Procedure: as §1

[6] = tested on: Mycobacterium abscessus ATCC 19977 WhiB7 A51T
Procedure: as §1

[7] = tested on: Mycobacterium abscessus ATCC 19977 WhiB7 F24fs
Procedure: as §1

[8] = tested on: Mycobacterium abscessus ATCC 19977 WhiB7 L37P
Procedure: as §1

[9] = tested on: Mycobacterium abscessus ATCC 19977 WhiB7 T70fs
Procedure: as §1

[10] = tested on: Mycobacterium abscessus ATCC 19977 Δeis2
Procedure: as §1

[11] = tested on: Mycobacterium abscessus ATCC 19977 ΔwhiB7
Procedure: as §1

[12] = tested on: Mycobacterium abscessus ATCC 19977
Procedure: as §1

CO[C@@]1(NC(=O)Cc2cccs2)C(=O)N2C(C(=O)O)=C(COC(N)=O)CS[C@@H]21 [cefoxitin]
Conditions | growth [%]
[1], 0.5 µg/mL | 100
[1], 1 µg/mL | 114
[1], 2 µg/mL | 113.5
[1], 4 µg/mL | 118
[1], 8 µg/mL | 128
[1], 16 µg/mL | -2.18
[1], 32 µg/mL | -4.46
[1], 64 µg/mL | -7.35
[1], 128 µg/mL | -8.292
[1], 256 µg/mL | -7.79
[1], 512 µg/mL | -5.79
[1], 1024 µg/mL | -0.568
[2], 0.5 µg/mL | 87.6
[2], 1 µg/mL | 103
[2], 2 µg/mL | 99.5
[2], 4 µg/mL | 110
[2], 8 µg/mL | 125
[2], 16 µg/mL | 12.9
[2], 32 µg/mL | -5.76
[2], 64 µg/mL | -7.078
[2], 128 µg/mL | 5.19
[2], 256 µg/mL | -7.66
[2], 512 µg/mL | -5.915
[2], 1024 µg/mL | -1.41
[3], 0.5 µg/mL | 101
[3], 1 µg/mL | 109
[3], 2 µg/mL | 104
[3], 4 µg/mL | 111
[3], 8 µg/mL | 141
[3], 16 µg/mL | 4.68
[3], 32 µg/mL | 1.32
[3], 64 µg/mL | -6.61
[3], 128 µg/mL | -6.83
[3], 256 µg/mL | -6.41
[3], 512 µg/mL | -4.56
[3], 1024 µg/mL | 0.763
[4], 0.5 µg/mL | 94.3
[4], 1 µg/mL | 98.5
[4], 2 µg/mL | 102
[4], 4 µg/mL | 126
[4], 8 µg/mL | 138.08
[4], 16 µg/mL | 6.801
[4], 32 µg/mL | 1.23
[4], 64 µg/mL | -8.67
[4], 128 µg/mL | -4.4
[4], 256 µg/mL | -8.98
[4], 512 µg/mL | -6.79
[4], 1024 µg/mL | -1.06
[5], 0.5 µg/mL | 101
[5], 1 µg/mL | 104
[5], 2 µg/mL | 99.7
[5], 4 µg/mL | 114
[5], 8 µg/mL | 130
[5], 16 µg/mL | -1.63
[5], 32 µg/mL | 9.05
[5], 64 µg/mL | -7.27
[5], 128 µg/mL | -8.12
[5], 256 µg/mL | -7.34
[5], 512 µg/mL | -5.53
[5], 1024 µg/mL | -0.739
[6], 0.5 µg/mL | 101
[6], 1 µg/mL | 116
[6], 2 µg/mL | 98.42
[6], 4 µg/mL | 119
[6], 8 µg/mL | 139
[6], 16 µg/mL | 13.9
[6], 32 µg/mL | -2.24
[6], 64 µg/mL | -7.96
[6], 128 µg/mL | -8.58
[6], 256 µg/mL | 1.19
[6], 512 µg/mL | -6.16
[6], 1024 µg/mL | -1.06
[7], 0.5 µg/mL | 98.971
[7], 1 µg/mL | 107
[7], 2 µg/mL | 103
[7], 4 µg/mL | 118
[7], 8 µg/mL | 128
[7], 16 µg/mL | 10.5
[7], 32 µg/mL | -4.02
[7], 64 µg/mL | -6.88
[7], 128 µg/mL | -2.17
[7], 256 µg/mL | -7.35
[7], 512 µg/mL | -5.57
[7], 1024 µg/mL | -0.726
[8], 0.5 µg/mL | 97.5
[8], 1 µg/mL | 105
[8], 2 µg/mL | 100
[8], 4 µg/mL | 100
[8], 8 µg/mL | 128
[8], 16 µg/mL | 34.3
[8], 32 µg/mL | -2.93
[8], 64 µg/mL | -6.61
[8], 128 µg/mL | -7.1
[8], 256 µg/mL | -6.74
[8], 512 µg/mL | -4.8
[8], 1024 µg/mL | 0.562
[9], 0.5 µg/mL | 81.4
[9], 1 µg/mL | 111
[9], 2 µg/mL | 96.3
[9], 4 µg/mL | 113
[9], 8 µg/mL | 130
[9], 16 µg/mL | 9.85
[9], 32 µg/mL | -3.41
[9], 64 µg/mL | -9.17
[9], 128 µg/mL | -9
[9], 256 µg/mL | -8.77
[9], 512 µg/mL | -6.76
[9], 1024 µg/mL | -2.23
[10], 0.5 µg/mL | 93.9
[10], 1 µg/mL | 104
[10], 2 µg/mL | 88.4
[10], 4 µg/mL | 120.3
[10], 8 µg/mL | 90.9
[10], 16 µg/mL | -3.53
[10], 32 µg/mL | -6.32
[10], 64 µg/mL | -7.97
[10], 128 µg/mL | -8.106
[10], 256 µg/mL | 9.32
[10], 512 µg/mL | -6.3
[10], 1024 µg/mL | -1.49
[11], 0.5 µg/mL | 90.6
[11], 1 µg/mL | 102
[11], 2 µg/mL | 103
[11], 4 µg/mL | 106.2
[11], 8 µg/mL | 114.7
[11], 16 µg/mL | 47.2
[11], 32 µg/mL | -0.915
[11], 64 µg/mL | -9.58
[11], 128 µg/mL | -8.92
[11], 256 µg/mL | -9.85
[11], 512 µg/mL | -7.86
[11], 1024 µg/mL | -2.91
[12], 0.5 µg/mL | 101.2
[12], 1 µg/mL | 110
[12], 2 µg/mL | 96.8
[12], 4 µg/mL | 114
[12], 8 µg/mL | 123
[12], 16 µg/mL | 24.6
[12], 32 µg/mL | 50.6
[12], 64 µg/mL | -6.47
[12], 128 µg/mL | -7.723
[12], 256 µg/mL | -7.06
[12], 512 µg/mL | -5.88
[12], 1024 µg/mL | -0.901
